Data reported in PubChem BioAssay AID2147 (National Center for Advancing Translational Sciences (NCATS), 2009).
Screen size: about 230,000 compounds; about 3,600 (1.6%) were called active. The shares of active, inactive and inconclusive entries below differ from those in the screen. Calls follow the shape of the dose curve; as a rule, active = well fitted inhibition curve with a large enough effect (not every such curve was filed as active); inconclusive = small, poorly fitted or top-dose-only effect, or another doubt; inactive = no such curve, though single readings can be large or run the other way. A potency beside an inconclusive call is a rough fit, not a confirmed value.

What follows are molecules tested against Lysine-specific demethylase 4E (Homo sapiens) (UniProt B2RXH2) (assay: qHTS Assay for Inhibitors of Human Jumonji Domain Containing 2E (JMJD2E)). Details: JMJD2E catalytic domain, FDH-coupled NADH fluorescence (FDH is formaldehyde dehydrogenase); series mostly up to 57.1 µM; activity change, negative = inhibition: at the top concentration.
Also: nearly all actives have a fitted effect of over 50% in size.
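For activity change, negative = inhibition in this document: 0% = wells with enzyme and -100% = buffer wells without enzyme.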
Potency is read from the fitted curve at half-maximal effect; tags tell the direction and shape of the fitted curve.

Chain of UniProt B2RXH2 (B2RXH2 whole entry, looked up, the tested form may be a part): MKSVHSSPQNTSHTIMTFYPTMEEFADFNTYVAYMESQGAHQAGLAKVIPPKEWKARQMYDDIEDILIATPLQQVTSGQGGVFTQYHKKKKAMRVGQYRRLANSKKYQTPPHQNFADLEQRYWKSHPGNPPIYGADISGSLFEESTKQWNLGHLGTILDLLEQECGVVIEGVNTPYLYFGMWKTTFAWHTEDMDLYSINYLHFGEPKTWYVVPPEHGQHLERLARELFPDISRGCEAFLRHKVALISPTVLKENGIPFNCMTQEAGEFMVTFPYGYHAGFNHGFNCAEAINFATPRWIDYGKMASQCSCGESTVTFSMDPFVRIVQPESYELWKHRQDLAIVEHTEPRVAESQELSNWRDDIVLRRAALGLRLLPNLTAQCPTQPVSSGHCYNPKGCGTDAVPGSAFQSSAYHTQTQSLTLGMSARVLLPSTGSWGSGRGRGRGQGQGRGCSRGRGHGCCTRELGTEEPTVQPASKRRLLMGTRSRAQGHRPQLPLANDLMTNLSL

| SMILES | activity change, negative = inhibition | Potency |
| --- | --- | --- |
| CCNc1sc(S(C)(=O)=O)nc1S(=O)(=O)c1ccc(Cl)cc1 | inactive: -16.5% | – |
| COc1ccc(N2CCC(CNS(=O)(=O)c3cccc(C(F)(F)F)c3)C2)cc1 (configuration not stated) | – | inconclusive: 25.1 µM [inhibitor, partial curve] |
| Cc1cc(NC(=O)CCSc2ccccc2)ccc1Br | inactive: -1.05% | – |
| COc1ccc(C(=O)Nn2c(SCC(=O)NCC3CCCO3)nc3ccccc3c2=O)cc1 (configuration not stated) | – | inconclusive: 39.8 µM [inhibitor, single point] |
| CCN(CC)C(=O)c1cc2cc([N+](=O)[O-])ccc2s1 | inactive: 1.38% | – |
| N#CC1=C(N)NC(SCC(=O)c2ccc(Br)cc2)=C(C#N)C12CCCCC2 | inactive: -7.06% | – |
| Cc1nn(CCO)c2nc(-c3cccs3)cc(C(F)(F)F)c12 | – | inconclusive: 28.2 µM [inhibitor, partial curve] |
| NS(=O)(=O)c1ccc(CCNC(=O)/C=C/c2ccccc2[N+](=O)[O-])cc1 | inactive: 0.561% | – |
| COCC1=Cc2cc3c(cc2C(C(C(=O)OC)C(=O)OC)N1C(=O)OC)OCO3 (configuration not stated) | – | inactive |
| COc1cc(OC)cc(C(=O)N[C@H](C(=O)OCC(=O)NC(C)c2ccccc2)C(C)C)c1 (some centres not stated) | – | inconclusive: 39.8 µM [inhibitor, single point] |
| COc1ccc(NC(=S)N(CCCN2CCOCC2)Cc2cn(C)c3ccccc23)cc1OC | inactive: -3.24% | – |
| Cc1ccc(C(=O)Nc2ccc(N3CCCC3)cc2)cc1 | – | inconclusive: 31.6 µM [inhibitor, single point] |
| COc1cccc(-c2nn(C)c3sc(C(=O)N4CCOCC4)cc23)c1 | – | inconclusive: 22.4 µM [inhibitor, partial curve] |
| CC(C)(C)c1ccc(C(=O)Nc2ccc(Cl)cc2)cc1 | inactive: 3.99% | – |
| O=C(CSc1cccc2cccnc12)N/N=C/c1ccc(O)cc1 | – | inconclusive: 31.6 µM [inhibitor, single point] |
| O=C(O)CSc1ncnc2sc3c(c12)CCC3 | – | inconclusive: 31.6 µM [inhibitor, partial curve] |
| COc1ccc(-n2nc(C(=O)NCC(=O)Nc3cccc(NC(C)=O)c3)c3ccccc3c2=O)cc1 | – | inconclusive: 35.5 µM [inhibitor, single point] |
| CCC(C)NC(=O)c1cn(CC)c2cc(N3CCN(C)CC3)c(F)cc2c1=O (configuration not stated) | – | inconclusive: 25.1 µM [inhibitor, partial curve] |
| CCOc1ncccc1C(=O)Nc1ccc(-c2ccc3nnc(C)n3n2)cc1 | – | inconclusive: 31.6 µM [inhibitor, single point] |
| CCSc1nc(N)c(C#N)c(-c2ccccc2Cl)c1C#N | – | inconclusive: 39.8 µM [inhibitor, single point] |
| COc1ccc(N/C(=C(/C(Cl)=C(Cl)Cl)[N+](=O)[O-])n2nnc3ccccc32)cc1OC | – | inconclusive: 35.5 µM [inhibitor, single point] |
| COc1ccccc1Nc1nc(NCC2CCCO2)c2ccccc2n1 (configuration not stated) | inactive: -0.39% | – |
| COc1ccc(-n2ncc3c(NCCCN4CCOCC4)ncnc32)cc1 | – | inconclusive: 28.2 µM [inhibitor, single point] |
| COc1cc(C2C(C(=O)/C=C/c3ccccc3)=C(O)C(=O)N2c2ccccn2)ccc1O (configuration not stated) | inactive: -8.34% | – |

| SMILES | activity change, negative = inhibition | Potency |
| --- | --- | --- |
| Cn1c(=O)c(Sc2ccc(Cl)cc2)c(O)c2ccccc21 | – | inconclusive: 28.2 µM [inhibitor, single point] |
| COC(=O)c1ccc(N2C(=O)CC(N3CCOCC3)C2=O)cc1 (configuration not stated) | inactive: -0.205% | – |
| CC(C)C[C@H](NC(=O)c1[nH]cnc1C(=O)Nc1ccccc1)C(=O)OC(C)(C)C | inactive: -4.14% | – |
| CCN1CCN(Cc2ccc(NC(=O)c3ccc(C)c(NC(=O)c4cc(-c5ccc(Br)cc5)n[nH]4)c3)cc2C(F)(F)F)CC1 | – | inconclusive: 35.5 µM [inhibitor, single point] |
| COCCNc1nc(C)nc2c1nc(-c1ccccc1)n2CC1CCN(C)CC1 | – | inconclusive: 28.2 µM [inhibitor, partial curve] |
| Cc1ccc(Cn2c(Sc3ncccn3)nc3c2c(=O)[nH]c(=O)n3C)cc1 | inactive: 9.57% | – |
| N#CC(c1nc2ccccc2nc1N1CCCC1)S(=O)(=O)c1cccs1 (configuration not stated) | – | inconclusive: 28.2 µM [inhibitor, partial curve] |
| O=C1NN(c2ccc(F)cc2)C(=O)/C1=C\C=C\c1ccco1 | – | inconclusive: 39.8 µM [inhibitor, single point] |
| CCOCCCn1c(SCC(=O)Nc2ccc(C(N)=O)cc2)nc2ccccc2c1=O | – | inconclusive: 12.6 µM [inhibitor, partial curve] |
| Cc1cccc2nc(CSc3nc4cc([N+](=O)[O-])ccc4s3)cn12 | inactive: -6.3% | – |
| CCOC(=O)N1CCC(c2cc(=O)n3[nH]cc(C(=O)OC)c3n2)CC1 | – | inconclusive: 35.5 µM [inhibitor, single point] |
| O=C(NCCCc1ccccc1)c1ccc(Br)o1 | inactive: 4.69% | – |
| O=C(NNC(=S)Nc1ccc(OC(F)F)cc1)c1cc2c(s1)CCCC2 | inactive: 2.3% | – |
| COc1cc(-c2nnc(-c3ccncc3)o2)ccc1OCc1ccccc1 | – | inconclusive: 17.8 µM [inhibitor, partial curve] |
| Oc1ccc(Cl)cc1/C=N/c1nc2ccccc2[nH]1 | – | inconclusive: 39.8 µM [inhibitor, single point] |
| COc1cc(C(=S)N2CCCC2)ccc1O | inactive: -4.24% | – |
| COc1ccccc1-c1ccc(SCc2cccc(C)c2)nn1 | inactive: -3.63% | – |
| COc1ccc(-c2cc(C3CC3)nc3sc(C#N)c(N)c23)cc1 | – | inconclusive: 28.2 µM [inhibitor, partial curve] |
| CCCOc1nc(N)c(C#N)c(-c2ccccc2F)c1C#N | inactive: -10.3% | – |
| Cc1cccc(/C=N/n2c(-c3cc(-c4ccccc4)n[nH]3)n[nH]c2=S)c1 | inactive: 4.74% | – |
| O=C1c2ccccc2C(=O)N1c1cccc(-c2csc(Nc3ccc4c(c3)OCO4)n2)c1 | inactive: -7.85% | – |
| COc1ccc(-c2nc(NC(=O)c3[nH]c(C)c(C(C)=O)c3C)sc2C)cc1 | – | inconclusive: 39.8 µM [inhibitor, single point] |
| COc1ccc(-c2cn3cccnc3n2)cc1NC(=O)c1ccc(Br)o1 | – | inconclusive: 22.4 µM [inhibitor, partial curve] |
| Cc1ccc(-c2nnc(SCC(=O)N3CCOCC3)nc2-c2ccc(C)cc2)cc1 | inactive: -12.5% | – |

| SMILES | activity change, negative = inhibition | Potency |
| --- | --- | --- |
| CCOCCCNC(=S)N1CCCN(c2nc3cc(C)c(C)cc3cc2C#N)CC1 | – | inconclusive: 31.6 µM [inhibitor, partial curve] |
| Cc1ccc(S(=O)(=O)Nc2cc(C(C)C)c(O)cc2C)cc1 | inactive: 4.84% | – |
| NN=C1c2cc([N+](=O)[O-])ccc2-c2ccc([N+](=O)[O-])cc21 | – | inconclusive: 31.6 µM [inhibitor, single point] |
| CCn1nc(NC(=O)c2ccco2)c2cc3cc(C)ccc3nc21 | – | inconclusive: 25.1 µM [inhibitor, single point] |
| Cc1nn(C)cc1/C=N\NC(=O)c1ccc2c(c1)c(C)c(C)n2Cc1ccccc1 | – | inconclusive: 39.8 µM [inhibitor, single point] |
| Oc1cccc(/C=N/Nc2cccc3cccnc23)c1 | – | inconclusive: 39.8 µM [inhibitor, single point] |
| CCOCCCNCc1cccc(OCc2ccc(F)cc2)c1 | – | inconclusive: 35.5 µM [inhibitor, single point] |
| NC(=O)c1nsc(C(=O)N(CC(=O)NCc2ccc3c(c2)OCO3)C2CCCCC2)c1N | – | inconclusive: 31.6 µM [inhibitor, partial curve] |
| O=c1c2cc(-c3ccccc3)sc2nc2n1CCC2 | – | active: 35.5 µM |
| CCCn1c2c(c(O)c(C(=O)Nc3nccs3)c1=O)CCCC2 | – | inconclusive: 39.8 µM [inhibitor, single point] |
| CCc1ccc2[nH]c(=O)c(C(c3nnnn3CC3CCCO3)N3CCN4CCCC4C3)cc2c1 (configuration not stated) | – | inconclusive: 31.6 µM [inhibitor, partial curve] |
| Cc1ccc(NCc2nnc(SCC(=O)Nc3cccc(O)c3)n2CC2CCCO2)c(C)c1 (configuration not stated) | inactive: -0.724% | – |
| COc1ccc(-c2cc(-c3cccs3)c(C#N)c(SCC(=O)NCc3ccccc3)n2)cc1 | – | inconclusive: 7.94 µM [inhibitor, single point] |
| Cc1cccc2c(-c3ccccc3)cc(=O)[nH]c12 | – | inconclusive: 25.1 µM [inhibitor, partial curve] |
| CCc1ccc2[nH]c(=O)c(C(c3nnnn3CCOC)N3CCN(c4ccccc4F)CC3)cc2c1 (configuration not stated) | – | inconclusive: 25.1 µM [inhibitor, partial curve] |
| O=C(O)c1ccc(OCCn2ccnc2)cc1 | inactive: 1.98% | – |
| COc1ccc(CCNc2oc(-c3ccccc3OC)nc2C#N)cc1OC | – | inconclusive: 31.6 µM [inhibitor, partial curve] |
| Clc1ccc2c(NCc3ccccn3)ncnc2c1 | – | inconclusive: 39.8 µM [inhibitor, single point] |
| CCOc1ccc(OCC(=O)Nc2ccc(OC)cc2)cc1 | – | inconclusive: 39.8 µM [inhibitor, single point] |
| COc1cc2[nH]c(Cl)c([N+](=O)[O-])c2cc1OC | – | active: 12.6 µM |
| CSc1nc(Sc2ccccc2Cl)c2ccccc2n1 | – | inconclusive: 35.5 µM [inhibitor, single point] |
| FC(F)(F)c1nc2nncn2c2c1CCCCC2 | – | inconclusive: 31.6 µM [inhibitor, partial curve] |
| COc1cc2c(cc1OC)CN(c1nc(CN3CCCCC3)nc3sc4c(c13)CCCC4)CC2 | inactive: -8.5% | – |
| CCOC(=O)CNC(=O)c1sc2ncnc(N3CCc4ccccc4C3)c2c1C | – | inconclusive: 35.5 µM [inhibitor, partial curve] |
